Experimental data from PubChem BioAssay AID686979 (National Center for Advancing Translational Sciences (NCATS), 2013).
Out of some 420,000 compounds screened, about 50,000 (12%) were called active. The shares of active, inactive and inconclusive entries below differ from those in the screen. Calls follow the shape of the dose curve; as a rule, active = well fitted inhibition curve with a large enough effect; inconclusive = small, poorly fitted or top-dose-only effect; inactive = flat fitted curve, though single readings scatter. No potency is given beside an inconclusive call; the fits are too rough.

assay: qHTS for Inhibitors of human tyrosyl-DNA phosphodiesterase 1 (TDP1): qHTS in cells in presence of CPT; conditions: chicken DT40 Tdp1-/-;hTDP1 cells + 20 nM CPT, ATP luminescence, 48 h; activity change, negative = growth inhibition: at 46.2 µM (top of the series); also: nearly all actives have a fitted effect of over 55% in size
Procedure, shortened: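 Cell growth measured by CellTiter-Glo luminescence after a minimum 48 h, 37 C compound exposure with 20 nM CPT in Tdp1-knockout DT40 cells stably expressing hTDP1, seeded 400/well; qHTS titration format.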
% is scaled to controls: 0 for no effect and ±100 for the full control effect; potency is read from the fitted curve at half-maximal effect; tags tell the direction and shape of the fitted curve.

SMILES	Potency	activity change, negative = growth inhibition
Cc1cc(N2C(=O)C(O)=C(C(=O)c3ccc(C)o3)C2c2cccs2)no1 (centres undefined)	inconclusive [inhibitor, single point]	
Cc1sc2ncnc(N3CCC(C(=O)Nc4ccc(OC(F)F)c(Cl)c4)CC3)c2c1C	inconclusive [inhibitor, single point]	
NC(N)=N/N=C(\N=Nc1ccccc1)c1ccc(Cl)cc1	active: 13 µM	
COC(=O)NCc1c(C)nn(-c2ccccc2)c1-n1cccc1		inactive: -8.29%
CCOc1ccc2c(c1)c(=O)c(S(=O)(=O)c1ccc(C)cc1)cn2CC	active: 18.4 µM	
Cc1ccc(C)c(NC(=O)C(=O)NCCc2csc3nc(-c4ccccc4C)nn23)c1	inconclusive [inhibitor, single point]	
COc1ccc(S(=O)(=O)N2CCOCC2)cc1N(C)S(=O)(=O)c1ccc(C)cc1	inconclusive [inhibitor, single point]	
CN(C)c1ccc(/C=N/n2c(C3CCCCC3)n[nH]c2=S)cc1	inconclusive [inhibitor, single point]	
CCOc1ccc(S(=O)(=O)N2CCCCC2)c(C)c1C	inconclusive [inhibitor, partial curve]	
O=C(NCc1ccc(F)cc1)c1cc(C2CCCN(S(=O)(=O)c3ccccc3)C2)on1 (centres undefined)	inconclusive [inhibitor, single point]	
CCn1c(=O)cc(OCC(=O)Nc2ccccc2N2CCN(C)CC2)c2ccccc21	inconclusive [inhibitor, single point]	
CN1CCN(CC(O)Cn2c3ccccc3c3ccccc32)CC1 (centres undefined)		inactive: -22.9%
CC1CCC(NC(=O)c2cc3ccccc3cc2O)CC1 (centres undefined)	inconclusive [inhibitor, single point]	
COc1cc(O)c(C(CCN2CCN(c3ccccc3)CC2)c2ccc(N(C)C)cc2)c(OC)c1 (centres undefined)	active: 13 µM	
Cc1cccc2c(C(=O)O)cc(-c3cccnc3)nc12	inconclusive [inhibitor, partial curve, poor fit]	
COC(=O)c1ccc(C2C(Oc3ccccc3)C(=O)N2CCc2ccc(F)cc2)cc1 (centres undefined)	inconclusive [inhibitor, partial curve, poor fit]	
Cc1ccc(S(=O)(=O)c2cc3c(=O)n4ccccc4nc3n(Cc3ccco3)c2=N)cc1	inconclusive [inhibitor, partial curve]	
O=C(COc1ccccc1Br)NCCc1nc2ccccc2[nH]1		inactive: -28.2%
CCOc1ccc(C(=O)c2cccs2)cc1		inactive: -10.9%
Cc1ccc(-n2ccnc(SCC(=O)NC3CCCCC3)c2=O)cc1F	inconclusive [inhibitor, single point]	
O=c1c2c3c(sc2nc2n1CCCC2)CCC3		inactive: -7.15%
CCN1C(=O)N(CN2CCOCC2)C2C1N(CN1CCOCC1)C(=O)N2CC (centres undefined)	inconclusive [inhibitor, partial curve]	
COc1ccc(NC(=O)CCCN(C)S(=O)(=O)c2ccc(C)cc2)cc1	inconclusive [inhibitor, partial curve]	
CCOC(=O)c1c(C)[nH]c(C(=O)OC/C(O)=C(\C#N)c2nc3ccccc3[nH]2)c1C	inconclusive [inhibitor, partial curve]	
COc1ccc(-n2c(SCC(=O)Nc3nccs3)nnc2-c2ccccc2)cc1	inconclusive [inhibitor, single point]	

SMILES	Potency	activity change, negative = growth inhibition
COc1ccc(NC(=O)COC(=O)CCOc2ccccc2C)cc1Cl		inactive: -27.6%
Cc1csc2ncc(C(=O)NC(C)c3ccccc3)c(=O)n12 (centres undefined)	inconclusive [inhibitor, partial curve]	
O=C(CSc1nnnn1-c1ccccc1)Nc1ncc(Cc2cc(Cl)ccc2Cl)s1		inconclusive: -32.7% [inhibitor]
COc1ccc(C2/C=C\CN(S(=O)(=O)/C=C/c3ccccc3)CC(=O)N2Cc2ccc(F)cc2)cc1 (centres undefined)	inconclusive [inhibitor, single point]	
CCN1CCN(Cc2c(O)ccc3c(C)c(-c4ccccc4)c(=O)oc23)CC1	inconclusive [inhibitor, single point]	
O=C(CN1CCCCC1)N/N=C/c1ccc(Cl)cc1		inactive: 4.63%
COc1ccccc1CNC(=O)COc1ccccc1OC		inactive: -9.27%
CCn1cc(/C=C(\NC(=O)c2ccccc2F)C(=O)N2CCCC2)c2ccccc21	inconclusive [inhibitor, single point]	
COc1ccccc1C1NC=C([N+](=O)[O-])C=C1[N+](=O)[O-] (centres undefined)		inactive: -3.61%
COc1cc(C(=S)NCc2ccccc2)cc(Br)c1O	inconclusive [inhibitor, single point]	
Cc1cccc(-n2ncc(C(=O)NCc3ccccn3)c2C2CCN(C(=O)OC(C)(C)C)CC2)c1	inconclusive [inhibitor, single point]	
CCCCc1ccc(S(=O)(=O)NNC(=S)NCc2ccco2)cc1		inconclusive: -30.9% [inhibitor]
CN(C)c1ncc2nc(-c3cccs3)c(=O)n(CCc3ccccc3)c2n1		inactive: -24.4%
Cc1cccc(OCC(=O)Nc2ccc3c(c2)nc(CCN2CCC(C)CC2)n3C)c1	inconclusive [inhibitor, single point]	
CCCCN1C(=O)CN(C2CCCCC2)C(=O)C1c1ccc(OC(C)C)c(OC)c1 (centres undefined)		inactive: -23.7%
Cc1cccc(C)c1NC(=O)CNC(=O)c1c(C)nn(-c2ccccc2)c1C		inactive: -8.65%
CCN(CC)S(=O)(=O)c1cccc(NC(=O)COc2ccc(C#N)cc2OC)c1	inconclusive [inhibitor, partial curve]	
CN(C)c1ccc(/C=C/c2ccnc3ccc(-c4ccccc4)cc23)cc1	inconclusive [inhibitor, single point]	
O=C(NCCS(=O)(=O)NCCc1ccccc1)c1ccccc1		inactive: -0.808%
CN(C)/C=C/C(=O)/C=C/c1ccc(Cl)cc1		inactive: -1.58%
O=C(COc1ccc(Cl)cc1Cl)N/N=C1\CCCc2ccccc21	inconclusive [inhibitor, single point]	
O=C(CSc1nc2c(c(=O)[nH]1)CCCC2)Nc1ccc(Br)cc1	inconclusive [inhibitor, single point]	
COc1ccc(CNc2cc(-c3ccc(OC)cc3)nc3nncn23)cc1	inconclusive [inhibitor, single point]	
O=C(Nc1cc(Sc2nc3ccccc3s2)cc([N+](=O)[O-])c1)c1ccccc1F	active: 20.6 µM	
CCC(=O)NC(=S)NNC(=O)c1ccc(OC)cc1	active: 29.1 µM	

SMILES	Potency	activity change, negative = growth inhibition
CCOC(=O)C1=C(CNC2CCCCC2)NC(=O)NC1c1cc(C)ccc1C (centres undefined)	active: 25.9 µM	
CCc1nnc(NS(=O)(=O)c2ccc(NC(=O)c3cccc(OC)c3)cc2)s1		inactive: 5.8%
O=C(NC(Cc1ccccc1)C(=O)O)OCC1c2ccccc2-c2ccccc21 (centres undefined)		inactive: -0.708%
COc1ccc(NC(=O)CN(C)C(=O)c2cccc(S(=O)(=O)N3CCN(c4ccc(F)cc4)CC3)c2)cc1	active: 13 µM	
COc1ccc(C2Nc3ccccc3C(=O)N2c2ccccc2)cc1COc1ccc(NC(C)=O)cc1 (centres undefined)	inconclusive [inhibitor, single point]	
CC(=O)Nc1ccc(NC(=O)c2ccc3sc([C@H]4C[C@H](O)[C@@H](CO)O4)nc3c2)cc1		inactive: -10.5%
Nc1ncc(Br)cc1S(=O)(=O)Nc1ccccc1F		inactive: -0.371%
O=C(/C=C/c1cccc(Br)c1)c1ccc2c(c1)OCO2	inconclusive [inhibitor, single point]	
Cc1ccc(NC(=O)C(c2ccccc2)N2Cc3ccccc3C2=O)cc1Cl (centres undefined)	inconclusive [inhibitor, single point]	
CCOc1ccc(S(=O)(=O)NCc2ccccc2Cl)cc1C(N)=O	inconclusive [inhibitor, single point]	
CCOC(=O)C1CCCCN1Cc1cccc(OCc2ccccc2)c1 (centres undefined)	inconclusive [inhibitor, single point]	
COc1ccc(CCNC(=O)C(C(=O)c2ccccc2)n2ccccc2=O)cc1OC (centres undefined)		inactive: -19.6%
CCCC(C(=O)OCCN(CC)CC)(c1ccccc1)c1ccccc1	inconclusive [inhibitor, single point]	
O=C(COC(=O)Cc1c(F)cccc1Cl)NC(=O)Nc1ccccc1F		inactive: 4.92%
Cc1ccc(S(=O)(=O)N(C)C)cc1NC(=O)C(C)OC(=O)/C=C/c1cccs1 (centres undefined)		inactive: -30%
Cc1ccc2nc(Cl)c3cc(C(=O)N4CCCCC4C)sc3c2c1 (centres undefined)	inconclusive [inhibitor, single point]	
O=S(=O)(Nc1nc2ccccc2nc1OCC(F)(F)F)c1cccs1	inconclusive [inhibitor, single point]	
O=c1[nH]c(CN2CCOCC2)nc2cc(Cl)ccc12		inactive: -0.49%
Cc1ccccc1CNC(=O)c1oc2c(c1C)-c1[nH]ncc1CC2	inconclusive [inhibitor, single point]	
COc1ccc(-c2ccc(C(=O)N3CCOCC3)c3occc23)c(C)c1	active: 14.6 µM	
Cc1c(Cl)cccc1NC(=S)N(Cc1cccnc1)Cc1ccccc1Cl		inactive: -3.49%
NC(=O)C1CCN(CC(=O)N2N=CCC2c2ccccc2)CC1 (centres undefined)		inactive: 15.2%
COc1ccc(C(Cl)=C(C=O)c2ccc(OC)c(OC)c2)cc1OC	inconclusive [inhibitor, single point]	
COc1ccc(NC(=O)c2ccc3nccnc3c2)cc1	inconclusive [inhibitor, single point]	
